# Results reported in the supplement of paper PMC8728848.
# The other results are listed elsewhere or left out.
# Legend:
# Assay in all cases: glycan array binding signal (z-score within array); higher = stronger binding
# Settings in all cases: glycan notation: IUPAC condensed, linker removed
# [1] = target: Fuc(a1-3)[Gal(b1-4)]Glc6S
# Outline: (§1)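 Arrays were curated from the Consortium for Functional Glycomics database, 3228 in total, and kept only where the protein sequence was available. Binding is expressed as a within-array Z-score. This score was averaged across arrays of the same protein sequence at different concentrations or buffers and across linkers, and negative values can be read as non-binding.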
# [2] = target: Fuc(a1-3)[Gal(b1-4)]GlcNAc
# Outline: as §1
# [3] = target: Fuc(a1-3)[Gal(b1-4)]GlcNAc(b1-2)Man(a1-3)[Fuc(a1-3)[Gal(b1-4)]GlcNAc(b1-2)Man(a1-6)]Man(b1-4)GlcNAc(b1-4)GlcNAc
# Outline: as §1
# [4] = target: Fuc(a1-3)[Gal(b1-4)]GlcNAc(b1-2)Man(a1-6)[Gal(b1-4)GlcNAc(b1-2)Man(a1-3)]Man(b1-4)GlcNAc(b1-4)GlcNAc
# Outline: as §1
# [5] = target: Fuc(a1-3)[Gal(b1-4)]GlcNAc(b1-3)Gal(b1-3)[Fuc(a1-4)]GlcNAc
# Outline: as §1
# [6] = target: Fuc(a1-3)[Gal(b1-4)]GlcNAc(b1-4)Gal(b1-4)[Fuc(a1-3)]GlcNAc
# Outline: as §1
# [7] = target: Fuc(a1-3)[Gal(b1-4)]GlcNAc(b1-4)Gal(b1-4)[Fuc(a1-3)]GlcNAc(b1-4)Gal(b1-4)[Fuc(a1-3)]GlcNAc
# Outline: as §1
# [8] = target: Fuc(a1-3)[Gal(b1-4)]GlcNAc6S
# Outline: as §1
# [9] = target: Fuc(a1-3)[Gal3S(b1-4)]Glc6S
# Outline: as §1
# [10] = target: Fuc(a1-3)[Gal3S(b1-4)]GlcNAc
# Outline: as §1
# [11] = target: Fuc(a1-3)[Gal3S(b1-4)]GlcNAc6S
# Outline: as §1
# [12] = target: Fuc(a1-3)[GalNAc(b1-4)]GlcNAc
# Outline: as §1
# [13] = target: Fuc(a1-3)[Neu5Ac(a2-3)]Gal(b1-4)GlcNAc(b1-3)GalNAc
# Outline: as §1
# [14] = target: Fuc(a1-4)GlcNAc
# Outline: as §1
# [15] = target: Fuc(b1-3)GlcNAc
# Outline: as §1
# [16] = target: Gal(a1-2)Gal
# Outline: as §1
# [17] = target: Gal(a1-3)Gal
# Outline: as §1
# [18] = target: Gal(a1-3)Gal(b1-3)GlcNAc
# Outline: as §1
# [19] = target: Gal(a1-3)Gal(b1-4)Glc
# Outline: as §1
# [20] = target: Gal(a1-3)Gal(b1-4)GlcNAc
# Outline: as §1
# [21] = target: Gal(a1-3)Gal(b1-4)[Fuc(a1-3)]GlcNAc
# Outline: as §1
# [22] = target: Gal(a1-3)Gal(b1-4)[Fuc(a1-3)]GlcNAc(b1-2)Man(a1-3)[Gal(a1-3)Gal(b1-4)[Fuc(a1-3)]GlcNAc(b1-2)Man(a1-6)]Man(b1-4)GlcNAc(b1-4)GlcNAc
# Outline: as §1
# [23] = target: Gal(a1-3)GalNAc
# Outline: as §1
# [24] = target: Gal(a1-3)[Gal(a1-4)]Gal(b1-4)GlcNAc
# Outline: as §1
# [25] = target: Gal(a1-4)Gal(b1-4)Glc
# Outline: as §1
# [26] = target: Gal(a1-4)Gal(b1-4)GlcNAc
# Outline: as §1
# [27] = target: Gal(a1-4)Gal(b1-4)GlcNAc(b1-3)Gal(b1-4)Glc
# Outline: as §1
# [28] = target: Gal(a1-4)GlcNAc
# Outline: as §1
# [29] = target: Gal(a1-6)Glc
# Outline: as §1
# [30] = target: Gal(b1-2)Gal
# Outline: as §1
# [31] = target: Gal(b1-3)Gal
# Outline: as §1
# [32] = target: Gal(b1-3)Gal(b1-4)GlcNAc
# Outline: as §1
# [33] = target: Gal(b1-3)Gal(b1-4)GlcNAc(b1-2)Man(a1-3)[Gal(b1-3)Gal(b1-4)GlcNAc(b1-2)Man(a1-6)]Man(b1-4)GlcNAc(b1-4)GlcNAc
# Outline: as §1
# [34] = target: Gal(b1-3)GalNAc
# Outline: as §1
# [35] = target: Gal(b1-3)GalNAc(a1-3)[Fuc(a1-2)]Gal(b1-4)Glc
# Outline: as §1
# [36] = target: Gal(b1-3)GalNAc(a1-3)[Fuc(a1-2)]Gal(b1-4)GlcNAc
# Outline: as §1
# [37] = target: Gal(b1-3)GalNAc(b1-3)Gal(a1-4)Gal(b1-4)Glc
# Outline: as §1
# [38] = target: Gal(b1-3)GalNAc(b1-4)Gal(b1-4)Glc
# Outline: as §1
# [39] = target: Gal(b1-3)GalNAc(b1-4)[Neu5Ac(a2-3)]Gal(b1-4)Glc
# Outline: as §1
# [40] = target: Gal(b1-3)GlcNAc
# Outline: as §1
# [41] = target: Gal(b1-3)GlcNAc(b1-2)Man(a1-3)[Gal(b1-3)GlcNAc(b1-2)Man(a1-6)]Man(b1-4)GlcNAc(b1-4)GlcNAc
# Outline: as §1
# [42] = target: Gal(b1-3)GlcNAc(b1-2)Man(a1-3)[Gal(b1-3)GlcNAc(b1-2)Man(a1-6)]Man(b1-4)GlcNAc(b1-4)[Fuc(a1-6)]GlcNAc
# Outline: as §1
# [43] = target: Gal(b1-3)GlcNAc(b1-3)Gal(b1-3)GlcNAc
# Outline: as §1
# [44] = target: Gal(b1-3)GlcNAc(b1-3)Gal(b1-4)Glc
# Outline: as §1
# [45] = target: Gal(b1-3)GlcNAc(b1-3)Gal(b1-4)GlcNAc
# Outline: as §1
binder,measurement,setting,value
"DC-SIGN (Canis lupus), XP_853402 (protein) AGLCRPCPWKWELFQESCYFFSQTQNTWKESISACQNLRAQLVIINSTEEQKFLKSWNTRNNQRTWIGLSDHHNEGSWKWVDNTPLQLSFWKEGEPNNHGDEDCVELYSDGWNDNRCSTENFWICKKPSSPCPGPGLNDIFEAQKIEWHE",glycan array binding signal (z-score),[1],0.089
same,glycan array binding signal (z-score),[2],-0.181
same,glycan array binding signal (z-score),[3],-0.157
same,glycan array binding signal (z-score),[4],-0.15
same,glycan array binding signal (z-score),[5],0.664
same,glycan array binding signal (z-score),[6],0.044
same,glycan array binding signal (z-score),[7],-0.198
same,glycan array binding signal (z-score),[8],-0.096
same,glycan array binding signal (z-score),[9],0.6
same,glycan array binding signal (z-score),[10],0.093
same,glycan array binding signal (z-score),[11],-0.128
same,glycan array binding signal (z-score),[12],-0.178
same,glycan array binding signal (z-score),[13],1.01
same,glycan array binding signal (z-score),[14],-0.225
same,glycan array binding signal (z-score),[15],-0.096
same,glycan array binding signal (z-score),[16],-0.067
same,glycan array binding signal (z-score),[17],-0.079
same,glycan array binding signal (z-score),[18],-0.29
same,glycan array binding signal (z-score),[19],-0.285
same,glycan array binding signal (z-score),[20],-0.208
same,glycan array binding signal (z-score),[21],-0.226
same,glycan array binding signal (z-score),[22],-0.154
same,glycan array binding signal (z-score),[23],0.129
same,glycan array binding signal (z-score),[24],-0.15
same,glycan array binding signal (z-score),[25],-0.302
same,glycan array binding signal (z-score),[26],-0.198
same,glycan array binding signal (z-score),[27],-0.285
same,glycan array binding signal (z-score),[28],-0.08
same,glycan array binding signal (z-score),[29],-0.315
same,glycan array binding signal (z-score),[30],-0.033
same,glycan array binding signal (z-score),[31],-0.173
same,glycan array binding signal (z-score),[32],-0.309
same,glycan array binding signal (z-score),[33],-0.295
same,glycan array binding signal (z-score),[34],-0.196
same,glycan array binding signal (z-score),[35],-0.225
same,glycan array binding signal (z-score),[36],-0.239
same,glycan array binding signal (z-score),[37],-0.115
same,glycan array binding signal (z-score),[38],-0.216
same,glycan array binding signal (z-score),[39],-0.255
same,glycan array binding signal (z-score),[40],-0.104
same,glycan array binding signal (z-score),[41],-0.111
same,glycan array binding signal (z-score),[42],0.117
same,glycan array binding signal (z-score),[43],-0.202
same,glycan array binding signal (z-score),[44],-0.172
same,glycan array binding signal (z-score),[45],-0.331
